{
  "source": "PubChem BioAssay AID686978",
  "about": "(National Center for Advancing Translational Sciences (NCATS), 2013)",
  "note": "In all, about 420,000 compounds went through this assay and about 64,000 (15%) were called active. Inconclusive results, whose numbers are uncertain, are shown with a selection of clear calls. Calls come from the whole dose curve; as a rule, active = well fitted inhibition curve with a large enough effect; inconclusive = small, poorly fitted or top-dose-only effect; inactive = flat fitted curve, though single readings scatter. Potencies of inconclusive entries are left out as doubtful fits. Potency is the fitted concentration of half-maximal effect; tags give direction and shape of the fitted curve.",
  "data": [
    {"experiment": "qHTS for Inhibitors of human tyrosyl-DNA phosphodiesterase 1 (TDP1): qHTS in cells in absence of CPT; note: nearly all actives have a fitted effect of over 55% in size", "conditions": "DT40 Tdp1-/- hTDP1 cells, no CPT, ATP luminescence, 48 h; series mostly up to 46.2 µM", "source_text": "Human tyrosyl-DNA phosphodiesterase 1 (TDP1) is a novel repair gene, and we propose to use it as a new target for anticancer drug development. TDP1 is not an essential protein, but under treatment with topoisomerase I poison (camptothecin: CPT), TDP1 works as a critical factor for cell survival. To directly identify novel TDP1 inhibitors active in a cellular environment, we have knocked-out the Tdp1 gene in chicken DT40 cells (Tdp1-/-) and generated a complemented counterpart cells that contains a stable transfection of the human TDP1 gene (Tdp1-/-;hTDP1 cells). For the primary screen, Tdp1-/-;hTDP1 cells will be exposed to small molecules in the presence or absence of CPT, and their growth kinetics will be evaluated after 48 hours by measuring ATP activity. […] The hit compounds will then be evaluated in the presence or absence of CPT using Tdp1-/- cells. […] In tertiary assays, biochemical gel-based assays will be used to assess whether the hit compounds specifically target TDP1.\nTo this end, we have screened this cell line against the MLSMR in two primary screens. In one screen we add CPT and in the other we screen in the absence of CPT; this AID represents the screen where CPT was absent.\nNIH Chemical Genomics Center [NCGC]\nNIH Molecular Libraries Probe Centers Network [MLPCN]\nAssay Submitter (PI): Yves Pommier, NCI\nDT40-hTDP1 cells without 20 nM Camptothecin (add 20 microL of DMSO in 1 L of cell culture medium) were dispensed at 400 cells/5microL/well in tissue culture treated 1536-well white wall/solid bottom assay plates (Greiner Bio-One North America, NC, U.S.A.) using a Multidrop Combi 8 channel dispenser (Thermo Fisher, Waltham, MA, USA). 23 nL compounds and controls were transferred using the pin tool (Kalypsys, San Diego, CA, USA) to the assay plates. The assay plates were then incubated at 37 masculineC for a minimum 48 hr. Three microL of Cell Titer Glo solution was added to the plates and incubated at RT in dark for 30 min. Luminescence was read using ViewLux (Perkin Elmer) with 1 sec exposure slow speed, high gain and 2x binning.", "values": [
      {"smiles": "COc1ccc(CCC(=O)NCCNC(=O)CCc2ccc(OC)cc2)cc1", "Potency": "inactive"},
      {"smiles": "CC1CC(C)CN(S(=O)(=O)c2cc3c(cc2Cl)NC(=O)CO3)C1", "note": "(stereo unspecified)", "Potency": "inconclusive [inhibitor, partial curve]"},
      {"smiles": "CC(Sc1nnc(C2CC2)n1C1CC1)C(=O)Nc1ccc(C(N)=O)cc1", "note": "(stereo unspecified)", "Potency": "inactive"},
      {"smiles": "O=C(CCc1ccccc1)NC(c1cccs1)c1cc(Cl)c2cccnc2c1O", "note": "(stereo unspecified)", "Potency": "active: 4.11 µM"},
      {"smiles": "CC(C)Cc1nnc(NC(=O)CCC(=O)N2CCN(Cc3ccc(F)cc3)CC2)s1", "Potency": "inactive"},
      {"smiles": "COc1cc(OC)cc(-c2c(-c3cccs3)c3cc(-c4ccc5[nH]ccc5c4)ccc3n2C)c1", "Potency": "inconclusive [inhibitor, single point]"},
      {"smiles": "Cn1nc(C(F)(F)F)c(C(=O)Nc2ccc(Cl)cc2)c1Cl", "Potency": "inconclusive [inhibitor, single point]"},
      {"smiles": "Cc1cc(C)c2oc(-c3ccc(C)c(NC(=O)/C=C/c4ccco4)c3)nc2c1", "Potency": "inconclusive [inhibitor, single point]"},
      {"smiles": "COc1ccccc1N1CCN(C(=O)COc2cc(C)cc(C)c2)CC1", "Potency": "inconclusive [inhibitor, single point]"},
      {"smiles": "Cn1c(=O)c2c(nc(NCc3ccc4c(c3)OCO4)n2Cc2ccc(F)cc2)n(C)c1=O", "Potency": "active: 6.51 µM"},
      {"smiles": "O=[N+]([O-])c1ccc(/C=N/n2cnc3ccccc32)s1", "Potency": "active: 3.66 µM"},
      {"smiles": "CCNC(=O)Cc1ccc(S(=O)(=O)N2CCOCC2)s1", "Potency": "inactive"},
      {"smiles": "Cn1ccnc1C(=O)c1cc(SCC(=O)NCc2ccccc2)nc2ccccc12", "Potency": "active: 5.17 µM"},
      {"smiles": "Cc1cccc(-n2ncc3c2CCCC3NC(=O)CCN2Cc3ccccc3C2=O)c1C", "note": "(stereo unspecified)", "Potency": "inconclusive [inhibitor, partial curve]"},
      {"smiles": "COc1ccccc1NCC(=O)c1ccc(Cl)cc1", "Potency": "inconclusive [inhibitor, single point]"},
      {"smiles": "CC(=O)c1ccc([C@@H]2C[C@]34CN(Cc5cccc(C(F)(F)F)c5)S(=O)(=O)[C@H]3C[C@H]2O4)cc1", "Potency": "inconclusive [inhibitor, partial curve]"},
      {"smiles": "Cc1nc(N2CCCC2)ncc1C(=O)N1CCN(c2ccccc2F)CC1", "Potency": "inactive"},
      {"smiles": "CCN1CCN(c2nc(SC)nc3sc4c(c23)CC(C)(C)OC4)CC1", "Potency": "inconclusive [inhibitor, single point]"},
      {"smiles": "CCOC(=O)c1c(NC(=O)c2ccc(N3C(=O)C4C5C=CC(C5)C4C3=O)cc2)sc2c1CCCC2", "note": "(stereo unspecified)", "Potency": "active: 23.1 µM"},
      {"smiles": "C/C(=N\\NC(=S)NC1CCCCC1)c1ccc(Cl)c(Cl)c1", "Potency": "inactive"},
      {"smiles": "Cc1ccc(S(=O)(=O)N2CCN(C(=O)c3c(-c4ccccc4)noc3C)CC2)cc1C", "Potency": "inactive"},
      {"smiles": "Nc1nc(C2CC2)c(Sc2sc(N)nc2C2CC2)s1", "Potency": "inconclusive [inhibitor, partial curve]"},
      {"smiles": "C=CCn1c(C(C)NC(=O)COC)nc2ccccc21", "note": "(stereo unspecified)", "Potency": "inactive"},
      {"smiles": "Cc1cc(C(F)F)n2ncc(C(=O)N3CCc4ccccc4C3)c2n1", "Potency": "inconclusive [inhibitor, single point]"},
      {"smiles": "Cc1ccc(C(=O)NCC(=O)N(C)Cc2ccccc2C)s1", "Potency": "inactive"},
      {"smiles": "COc1ccc(/C(C)=N/OC/C(O)=C(\\C#N)c2nc3ccccc3[nH]2)cc1", "Potency": "inactive"},
      {"smiles": "Cc1cccc(-c2cccc(NC(=O)C3CCCN(Cc4cccnc4)C3)c2)c1", "note": "(stereo unspecified)", "Potency": "inconclusive [inhibitor, single point]"},
      {"smiles": "CCN1CCN(C(c2ccc(F)cc2)c2nnnn2Cc2ccc3c(c2)OCO3)CC1", "note": "(stereo unspecified)", "Potency": "inconclusive [inhibitor, single point]"},
      {"smiles": "Cc1cc2nc(-c3ccc(SCc4ccc(C(=O)O)cc4)nc3)[nH]c2cc1C", "Potency": "inconclusive [inhibitor, single point]"},
      {"smiles": "COc1cccc(-c2nc(S(=O)(=O)c3ccccc3)c(N3CCC(C)CC3)o2)c1", "Potency": "active: 8.2 µM"},
      {"smiles": "CSc1ccccc1OCc1cc(C(=O)NCCN2CCCc3ccccc32)no1", "Potency": "active: 14.6 µM"},
      {"smiles": "Cc1ccc2cccc(Oc3ncnc4sc(C)c(C)c34)c2n1", "Potency": "inconclusive [inhibitor, single point]"},
      {"smiles": "CC1=C(C(=O)Nc2ccccc2)C(c2cc(Br)ccc2F)n2ncc(C(=O)Nc3ccccc3)c2N1", "note": "(stereo unspecified)", "Potency": "inconclusive [inhibitor, single point]"},
      {"smiles": "Cc1ccc(C(=O)n2nc(C)c(S(=O)(=O)N3CCOCC3)c2C)cc1C", "Potency": "inconclusive [inhibitor, single point]"},
      {"smiles": "O=C(Nc1nc(COc2ccccc2)cs1)c1ccccc1F", "Potency": "inconclusive [inhibitor, partial curve, poor fit]"},
      {"smiles": "CC1CN(C(=S)SCC(=O)c2ccc(Cl)cc2)CC(C)O1", "note": "(stereo unspecified)", "Potency": "active: 2.59 µM"},
      {"smiles": "CCS(=O)(=O)c1c(Nc2cc(C)ccc2C)sc(C(=O)c2ccccc2)c1N", "Potency": "inconclusive [inhibitor, single point]"},
      {"smiles": "O=S(=O)(Cc1ccc(Cl)cc1Cl)c1ccc(Cl)cc1", "Potency": "active: 1.03 µM"},
      {"smiles": "O=C(Oc1ccc(Oc2ccccc2)cc1)N1CCC(O)CC1", "Potency": "inconclusive [inhibitor, single point]"},
      {"smiles": "COc1cccc(NC(=O)N(Cc2cc3cc(C)cc(C)c3[nH]c2=O)CC2COCCO2)c1", "note": "(stereo unspecified)", "Potency": "inconclusive [inhibitor, partial curve]"},
      {"smiles": "COc1ccc(-c2cc(C(=O)Nc3cc(Cl)ccc3OC)no2)cc1", "Potency": "inconclusive [inhibitor, single point]"},
      {"smiles": "Clc1ccc(-c2nc3n(n2)Cc2ccccc2-3)cc1", "Potency": "inactive"},
      {"smiles": "O=C(CCCOc1ccc(Cl)cc1Cl)N/N=C/c1ccccc1", "Potency": "inconclusive [inhibitor, single point]"},
      {"smiles": "CS(=O)(=O)N(CC(=O)N1CCOCC1)c1cccc(Cl)c1", "Potency": "inactive"},
      {"smiles": "N=c1c(S(=O)(=O)c2ccc(Cl)cc2)cc2c(=O)n3ccccc3nc2n1C1CCCC1", "Potency": "inconclusive [inhibitor, single point]"},
      {"smiles": "COc1ccc(Br)cc1C(=O)Nc1ccc(Cc2ccncc2)cc1", "Potency": "inconclusive [inhibitor, single point]"}
    ]}
  ]
}
